Experimental data reported in the RNAGym collection of RNA variant scans (doi:10.1093/nar/gkz1192).
The source gives no read counts; variants with many changes may rest on few reads.

B1: CPEB3 Ribozyme (parent)
chain: UAACAGGGGGCCACAGCAGAAGCGUUCACGUCGCAGCCCCUGUCAGAUUCUGGUGAAUCUGCGAAUUCUGCUGUAUAUCUC

Variants of: B1
Experiment: self-cleavage, relative activity (ratio to wild type); higher = more cleavage; in vitro, sequencing
Outline: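 CPEB3 self-cleaving ribozyme mutant libraries were made by rounds of error-prone PCR, barcoded, and transcribed in vitro with T7 RNA polymerase for 5 hours at 37°C. Cleavage occurred during transcription and a 15 min DNase I step before EDTA stop. RNAs were reverse transcribed with template switching and Illumina-sequenced, with DNA sequencing mapping barcodes to variants. Relative activity is the variant's cleaved/total read fraction divided by wild type's (minimum 5 reads), averaged across three batches.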

Row | Variant | self-cleavage
1 | G8U A15G U72G C81U | 0.26
2 | G8A U43C U49C | 0.09
3 | G8A U26A U31C A45G | 0.14
4 | G8U G33C G52A G53U U60G U66C | 0.09
5 | G9A A13G A18U C34U | 0.06
6 | G8U A13U A35U A47U | 0.07
7 | G8A U51C A56G | 0.19
8 | G8U A47U U67C C71U U78C | 0.05
9 | G9A A15U U80C | 0.31
10 | G9A A15G U31A A77G | 0.07
11 | G8A U26A U58C U72C | 0.31
12 | G8U A28U C37U | 0.06
13 | G8U A15U A21U U80C | 0.17
14 | G8U A45U U49A | 0.12
15 | G9A A15G U60C A65G | 0.13
16 | G9A A18C U66C | 0.22
17 | G8A U25C U60A | 0.15
18 | G8A U25C C32A U43C C68U U78C | 0.04
19 | G8U A21U U25C A64G U66G | 0.05
20 | G8U U51A U74A | 0.13
21 | G8U C38U U43C U72A | 0.05
22 | G8U A15C U26C A57G | 0.06
23 | G9A A15G C40U U72A | 0.2
24 | G8C A15G U41A U51C G73A | 0.09

Row | Variant | self-cleavage
25 | G8A U26A U31C U69C | 0.06
26 | G8C U31C A35U | 0.06
27 | G9A A18G A35U U58G | 0.15
28 | G8U A20U A47G U49C | 0.05
29 | G8U A35U U66C U74C U80A | 0.1
30 | G8A U25C G33A A45U A56G U58A | 0.04
31 | G8A U48C U80A | 0.43
32 | G9A A13G U26G U60G A65G | 0.21
33 | G8U A18G U25A A47G U54A A64U | 0.04
34 | G8U A21G U31C U60C | 0.06
35 | G8U A20G A21G U41A G46C A64G | 0.05
36 | G8C A18U U41A C62U C68U | 0.04
37 | G8U U26C C27A A28G U72A U78C | 0.05
38 | G9A A18G A57G U66C | 0.1
39 | G8U A13G A35G U41C U51A G63A U69C | 0.07
40 | G9A A15G C27A C40U U41G U54A | 0.07
41 | G9A A18G A21G U25C C40U U41A | 0.18
42 | G8C A18G A35G A56G | 0.21
43 | G8U C11U C44A U60A U80C | 0.12
44 | G8C A64G U78A | 0.06
45 | G9A A15G G22U U25A U26C A77U | 0.33
46 | G8U U43A U80C | 0.23
47 | G8A U31A U54C A56G C62U U69C U72C | 0.03
48 | G8A G9U U41A A45U U54C | 0.12

Row | Variant | self-cleavage
49 | G8A U31C U41C A47G C50A U58C A77G | 0.06
50 | G8C U41C U60A | 0.11
51 | G8U A21G U72C | 0.08
52 | G8C C14U U72A A77G | 0.05
53 | G8U A20U G24A A35U C50A | 0.1
54 | G8U A18G A45G U60A | 0.05
55 | G9A A15U A64U U67C U72A | 0.04
56 | G8C A18U A28G U31A U60C | 0.31
57 | G8U A18U A35G A57G G61C | 0.07
58 | G8U U49A A56U | 0.18
59 | G8U U43C U54C U69C U78A | 0.04
60 | G8U U41C U51C A65G U67C | 0.05
61 | G8U G16C U69A | 0.05
62 | G8U A13U A20G A35G A47G U49A U51A | 0.03
63 | G8U G52A U76A | 0.38
64 | G8C G24C U67C U69A | 0.19
65 | G8U U25C U31A U49C | 0.34
66 | G9A A15G A28G A47G U67A | 0.06
67 | G8C A18U U26A A47G | 0.05
68 | G8U A28G U43C | 0.11
69 | G8A G16A A64G U76A | 0.22
70 | G8U A21G U31C U60C U72C | 0.05
71 | G8U G36C U41A U58C U72A | 0.12
72 | G8U A13G A45C | 0.22

Row | Variant | self-cleavage
73 | G8U A35U U67G | 0.29
74 | G8U U41A U78A | 0.15
75 | G8U U41A U43G A45U | 0.05
76 | G8A U26C U74A | 0.42
77 | G8A C23G A28G U41A U51A A56G U72G | 0.11
78 | G8U U58C U80G | 0.37
79 | G8A U25C A28U U31C A56U A65G | 0.08
80 | G8U G19U G53C A57G | 0.1
81 | G8U U31C G36U U41A A45G | 0.04
82 | G8U A21U A28G A56G U72A | 0.09
83 | G8A G42A U54A U60C | 0.06
84 | G8A U51C G52A U74C | 0.28
85 | G8U U43G A45U A56G U66C U76A | 0.03
86 | G8A G19A A35U C37U U51A | 0.18
87 | G8C U41A U58C G63A U72C | 0.05
88 | G8C U31C U54A A75G | 0.07
89 | G8A U25C A35U U72C U80C | 0.04
90 | G8U U51A U72A | 0.07
91 | G8A G24A G52A | 0.2
92 | G8C A21G A35U A47C U48C U67C C71A | 0.27
93 | G8A U41C U66A U67C U78C | 0.06
94 | G8C U49C A64G C68A U72A U78C | 0.04
95 | G8A U41C U69A | 0.21
96 | G8A U54C A57G | 0.18

Row | Variant | self-cleavage
97 | G8U G9A A18U | 0.3
98 | G8U G10C U49C A56U A65U U72C C81A | 0.05
99 | G8U U49A G63A U74C | 0.06
100 | G8A U43C A45G U49A | 0.05
101 | G9A A13U C38A U41G U66C | 0.19
102 | G8U A21G U41A U80C | 0.44
103 | G9A A18G A20U A45U A56U A64G C79U | 0.11
104 | G9A A13G U60C U66C | 0.05
105 | G8A U43C U51C | 0.08
106 | G8A U31C U60C U78C | 0.05
107 | G9A A13U U25C U31G A47G A56G U78C | 0.03
108 | G8A G42U U72A | 0.06
109 | G8C U51A U80C | 0.07
110 | G8A G53C A57G G63U | 0.06
111 | G8U A18G A20U U25C U80C | 0.05
112 | G9A A13C A21G U41A A56U U69A | 0.07
113 | G8U C14U A57G U67C | 0.09
114 | G8U G36U U43C U67A | 0.13
115 | G8C U49C U58C U78C | 0.06
116 | G8U C32U U69A | 0.07
117 | G8A U41A U80C | 0.35
118 | G8U C17G A20G | 0.07
119 | G8U C34A A45U U67A | 0.04
120 | G8A U31C U74C U80C | 0.1

Row | Variant | self-cleavage
121 | G8U G33C A57G | 0.11
122 | G8U A13G C62U A65G | 0.04
123 | G8U G52A U60A | 0.21
124 | G8U C40U U49A A65U U80C | 0.03
125 | G8C U26C U51A U72C U78C | 0.07
126 | G8C C39U U80C | 0.08
127 | G8A U25C A35G C50U U80C | 0.07
128 | G8A U31C U69A | 0.06
129 | G8U U41C A65G U69A | 0.07
130 | G8U A35G U49C | 0.15
131 | G8C A45G U49C | 0.36
132 | G8U U31C U69A | 0.07
133 | G8A G36A A47G U72A | 0.05
134 | G8A U25C U26C C71G U74C | 0.14
135 | G8C A13G C32U U54C | 0.06
136 | G8U A13U A20G U41A A77U | 0.05
137 | G8U C23U U26C C39U U48C A57U A65G | 0.02
138 | G9A A15G U66C | 0.25
139 | G8C U49C U66C | 0.06
140 | G8U U26A U51C A56C A64U | 0.05
141 | G8A C17U A56G | 0.09
142 | G8A G33A G52U A56G U74C U80C | 0.07
143 | G8A U41C U60C G63A U72C U76C | 0.05
144 | G9A A18G C40U U48C U72C U74C | 0.03

Row | Variant | self-cleavage
145 | G8U A28G U43A U76C U80C | 0.05
146 | G8U A45G A64G | 0.2
147 | G9A A18G C38U A47U U72C A77G U80A | 0.14
148 | G8A U25A A28G | 0.05
149 | G8U A15G U25C U31A U54C | 0.05
150 | G8U G55A C71A | 0.1
151 | G8U U49A U80C | 0.17
152 | G8U G30C U66C | 0.09
153 | G8U A20G A28G | 0.38
154 | G8A U41A U60C U78C | 0.03
155 | G8U U26C A56G G73C | 0.12
156 | G8A U25C C34U U49C U67C U74C | 0.05
157 | G9A A15G C40U G55A U67A A77G | 0.05
158 | G8A U66G A77U | 0.07
159 | G8U A45G U76A | 0.18
160 | G9A A13U G16U | 0.28
161 | G8U A21G U48C U67C | 0.04
162 | G8A C23A U41C A64G | 0.07
163 | G8U G9A C23U | 0.29
164 | G8C A47C U54C | 0.18
165 | G8U C23U G33A C38A A47G U51C | 0.07
166 | G8A U25C U26G A56U U66C | 0.04
167 | G8A U26C U31C A57C U69C | 0.07
